Changes are numbered by the printed parent chain; changes in the protein carry UniProt numbers. The list shows a part of the results.

First the molecules themselves.
B1: CUUAGUU (DNA:RNA)
RNA: GGGAGACCGGAAUUCAGAUUGUCCCUUAGUUUUAAAUCCCGUCGUAGCCACCA
DNA 1: CAATCTGAATTCCGGTCTCCC
DNA 2: TGGTGGCTACGACGGGATT
B2: GUAGAAG (DNA:RNA)
RNA: B1 RNA with C25G, U27A, A28G, G29A, U30A, U31G
DNA 1: CAATCTGAATTCCGGTCTCCC
DNA 2: TGGTGGCTACGACGGGATT
B3: AGCCGUC (DNA:RNA)
RNA: B1 RNA with C25A, U26G, U27C, A28C, U31C
DNA 1: CAATCTGAATTCCGGTCTCCC
DNA 2: TGGTGGCTACGACGGGATT
B4: ACAAAUA (DNA:RNA)
RNA: B1 RNA with C25A, U26C, U27A, G29A, U31A
DNA 1: CAATCTGAATTCCGGTCTCCC
DNA 2: TGGTGGCTACGACGGGATT
B5: CUGUUAC (DNA:RNA)
RNA: B1 RNA with U27G, A28U, G29U, U30A, U31C
DNA 1: CAATCTGAATTCCGGTCTCCC
DNA 2: TGGTGGCTACGACGGGATT
B6: AGAUGUU (DNA:RNA)
RNA: B1 RNA with C25A, U26G, U27A, A28U
DNA 1: CAATCTGAATTCCGGTCTCCC
DNA 2: TGGTGGCTACGACGGGATT
B7: GCCACUG (DNA:RNA)
RNA: B1 RNA with C25G, U26C, U27C, G29C, U31G
DNA 1: CAATCTGAATTCCGGTCTCCC
DNA 2: TGGTGGCTACGACGGGATT
B8: CGGGAUU (DNA:RNA)
RNA: B1 RNA with U26G, U27G, A28G, G29A
DNA 1: CAATCTGAATTCCGGTCTCCC
DNA 2: TGGTGGCTACGACGGGATT
B9: UUGAGGU (DNA:RNA)
RNA: B1 RNA with C25U, U27G, U30G
DNA 1: CAATCTGAATTCCGGTCTCCC
DNA 2: TGGTGGCTACGACGGGATT
B10: UUAUGGC (DNA:RNA)
RNA: B1 RNA with C25U, U27A, A28U, U30G, U31C
DNA 1: CAATCTGAATTCCGGTCTCCC
DNA 2: TGGTGGCTACGACGGGATT
B11: GAGUAUG (DNA:RNA)
RNA: B1 RNA with C25G, U26A, U27G, A28U, G29A, U31G
DNA 1: CAATCTGAATTCCGGTCTCCC
DNA 2: TGGTGGCTACGACGGGATT
B12: AUGGAGU (DNA:RNA)
RNA: B1 RNA with C25A, U27G, A28G, G29A, U30G
DNA 1: CAATCTGAATTCCGGTCTCCC
DNA 2: TGGTGGCTACGACGGGATT
B13: UAUCAUC (DNA:RNA)
RNA: B1 RNA with C25U, U26A, A28C, G29A, U31C
DNA 1: CAATCTGAATTCCGGTCTCCC
DNA 2: TGGTGGCTACGACGGGATT
B14: UCGAUAU (DNA:RNA)
RNA: B1 RNA with C25U, U26C, U27G, G29U, U30A
DNA 1: CAATCTGAATTCCGGTCTCCC
DNA 2: TGGTGGCTACGACGGGATT
B15: GGGAGAG (DNA:RNA)
RNA: B1 RNA with C25G, U26G, U27G, U30A, U31G
DNA 1: CAATCTGAATTCCGGTCTCCC
DNA 2: TGGTGGCTACGACGGGATT
B16: GAGCAUG (DNA:RNA)
RNA: B1 RNA with C25G, U26A, U27G, A28C, G29A, U31G
DNA 1: CAATCTGAATTCCGGTCTCCC
DNA 2: TGGTGGCTACGACGGGATT
B17: GUUCCCA (DNA:RNA)
RNA: B1 RNA with C25G, A28C, G29C, U30C, U31A
DNA 1: CAATCTGAATTCCGGTCTCCC
DNA 2: TGGTGGCTACGACGGGATT
B18: ACUAUCG (DNA:RNA)
RNA: B1 RNA with C25A, U26C, G29U, U30C, U31G
DNA 1: CAATCTGAATTCCGGTCTCCC
DNA 2: TGGTGGCTACGACGGGATT
B19: CGCGACU (DNA:RNA)
RNA: B1 RNA with U26G, U27C, A28G, G29A, U30C
DNA 1: CAATCTGAATTCCGGTCTCCC
DNA 2: TGGTGGCTACGACGGGATT
B20: CCGCUCA (DNA:RNA)
RNA: B1 RNA with U26C, U27G, A28C, G29U, U30C, U31A
DNA 1: CAATCTGAATTCCGGTCTCCC
DNA 2: TGGTGGCTACGACGGGATT

The target of the assay is T1, RBFOX1 RRM (Homo sapiens, UniProt Q9NWB1 109-208).
T1 sequence: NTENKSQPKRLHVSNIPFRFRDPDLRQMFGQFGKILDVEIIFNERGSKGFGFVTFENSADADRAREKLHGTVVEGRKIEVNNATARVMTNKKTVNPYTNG
The experiment in a line: EMSA; HiTS-Eq, 1 nM pool, 10 min; buffer printed only for the single-RNA assays: 10 mM Tris pH 7.5, 150 mM NaCl, 3.4 mM EDTA, 0.001% NP-40, 30 C. The following applies: tags: His6 N-terminal (pET28a); label: 5' 32P. A digest of the protocol: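 Purified RbFox RRM, wild type or mutant, was incubated for 10 min in 50 µL with 1 nM of a 5′-radiolabelled RNA pool carrying 7 randomized nucleotides, whose flanks were annealed to DNA oligonucleotides, over a series of increasing protein concentrations. Unbound RNA was resolved on 8% native PAGE, cut out, reverse-transcribed, barcoded by PCR and sequenced on an Illumina HiSeq 2500. Relative association constants were derived from changes in read counts for each RNA species versus the control reaction and normalised to the cognate motif.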
In general terms: A gel shift assay detects complexes by their altered migration in electrophoresis.
B1: the binding signal was 0.0119 KA relative to UGCAUGU.

Turning to B2, the binding signal is 0.00991 KA relative to UGCAUGU.

Regarding B3, the binding signal is 0.00905 KA relative to UGCAUGU.

As to B4, the binding signal was 0.000866 KA relative to UGCAUGU.

For the molecule B5, the binding signal was 0.0136 KA relative to UGCAUGU.

As for B6, the binding signal was 0.00932 KA relative to UGCAUGU.

On to B7, for which the binding signal is 0.0162 KA relative to UGCAUGU.

For B8, the binding signal was 0.03 KA relative to UGCAUGU.

For B9, the binding signal is 0.0187 KA relative to UGCAUGU.

B10: the binding signal was 0.00848 KA relative to UGCAUGU.

Regarding B11, the binding signal was 0.0168 KA relative to UGCAUGU.

Turning to B12, the binding signal was 0.0115 KA relative to UGCAUGU.

Take B13: the binding signal was 0.00384 KA relative to UGCAUGU.

With B14, the binding signal was 0.00435 KA relative to UGCAUGU.

In the case of B15, the binding signal was 0.0224 KA relative to UGCAUGU.

As for B16, the binding signal is 0.713 KA relative to UGCAUGU.

For the molecule B17, the binding signal is 0.00648 KA relative to UGCAUGU.

With B18, the binding signal was 0.00647 KA relative to UGCAUGU.

For B19, the binding signal was 0.012 KA relative to UGCAUGU.

With B20, the binding signal is 0.00712 KA relative to UGCAUGU.
